Patent US20240382610A1 (priority 2021, published 2024)

Legend:
Type in all cases: cell-based, human
[1] = system: DCs with DLD-1 transduced to overexpress nectin-4
[2] = system: DCs with nectin-4 negative tumor cells (DLD-1 parental)
[3] = system: CD14+ monocytes with DLD-1 transduced to overexpress nectin-4
[4] = system: CD3+ T cells with DLD-1 tumor cells overexpressing nectin-4
[5] = system: DLD-1 nectin-4 tumor cells
[6] = system: CD56+CD3- NK cells with DLD-1 tumor cells overexpressing nectin-4

B1: TNT169a: "The antibody conjugates tested were TNT264a, TNT265a, TNT266a, TNT267a, and TNT169a"; antibody not stated here (conjugate)
heavy: EVQLVESGGGLVQPGGSLRLSCAASGFTFSSYNMNWVRQAPGKGLEWVSYISSSSSTIYYADSVKGRFTISRDNAKNSLSLQMNSLRDEDTAVYYCARAYYYGMDVWGQGTTVTVSSASTKGPSVFPLAPSSKSTSGGTAALGCLVKDYFPEPVTVSWNSGALTSGVHTFPAVLQSSGLYSLSSVVTVPSSSLGTQTYICNVNHKPSNTKVDKKV[letters of human IgG1 Fc and a few adjoining residues left out]
light: DIQMTQSPSSVSASVGDRVTITCRASQGISGWLAWYQQKPGKAPKFLIYAASTLQSGVPSRFSGSGSGTDFTLTISSLQPEDFATYYCQQANSFPPTFGGGTKVEIKRTVAAPSVFIFPPSDEQLKSGTASVVCLLNNFYPREAKVQWKVDNALQSGNSQESVTEQDSKDSTYSLSSTLTLSKADYEKHKVYACEVTHQGLSSPVTKSFNRGEC
CD40 on human DCs [1]: robust induction of CD40
CD40 on human DCs [2]: limited to no induction of CD40
CD86 on human monocytes [3]: robust induction of CD86
CD69 expression on T cells [4]: with the exception of TNT169a
phagocytosis of DLD-1 nectin-4 tumor cells by macrophages [5]: robust phagocytosis
CD69 expression on NK cells [6]: except TNT169a
IRF7 expression by NK cells [6]: moderately lesser activation
